In the supplement of paper PMC9446081:
Screen size: about 39,000 compounds; about 220 (0.56%) showed activity. The list shows a part of the results.
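Also: static incubation at 37 °C against the wild-type strain, values averaged over two biological replicates.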

These molecules were tested on Escherichia coli K-12 BW25113 (assay: relative growth (OD600 normalised to plate interquartile mean) (fraction); higher = less growth inhibition, active = 0.2 or less). Settings: 50 µM; LB; incubation time: overnight (16-24 h).
For CN(C)CCCNC(=O)C[C@@H]1C=C[C@@H](NS(=O)(=O)c2ccccc2)[C@H](CO)O1, the relative growth was inactive: 1. Cc1noc(C)c1S(=O)(=O)N(C)C[C@@H]1OCCCC[C@H](C)Oc2ccc(NC(=O)Nc3ccc(C(F)(F)F)cc3)cc2C(=O)N([C@H](C)CO)C[C@@H]1C was tested, and the relative growth was inactive: 0.968. C[C@@H]1CCCCO[C@@H](CN(C)C(=O)Nc2ccc3c(c2)OCO3)[C@H](C)CN([C@H](C)CO)C(=O)c2cc(NC(=O)Nc3ccc(F)cc3)ccc2O1 was tested, and the relative growth was inactive: 1.02. With CCOC(=O)CCCCCC(=O)Nc1ccc2c(c1)C(=O)N([C@@H](C)CO)C[C@@H](C)[C@H](CN(C)C(=O)c1ccncc1)OCCCC[C@H](C)O2 the relative growth was inactive: 0.992. With C[C@@H]1CCCCO[C@@H](CN(C)S(=O)(=O)c2cn(C)cn2)[C@H](C)CN([C@@H](C)CO)C(=O)c2cc(NS(=O)(=O)c3cccs3)ccc2O1 the relative growth was inactive: 0.992. C[C@@H]1CCCCO[C@H](CN(C)C(=O)Nc2ccc3c(c2)OCO3)[C@H](C)CN([C@H](C)CO)C(=O)c2cc(NS(=O)(=O)c3cccs3)ccc2O1 was tested, and the relative growth was inactive: 1.03. Cc1ccc(S(=O)(=O)Nc2cccc3c2O[C@H](CN(C)CC2CC2)[C@@H](C)CN([C@H](C)CO)C3=O)cc1 was tested, and the relative growth was inactive: 0.989. For COc1ccc(C(=O)Nc2ccc3c(c2)C(=O)N(C)[C@@H]2CC[C@H](CC(=O)NCC4CC4)O[C@@H]2CO3)cc1, the relative growth was inactive: 0.982. In the case of C[C@H]1CN([C@@H](C)CO)C(=O)c2cc(NS(=O)(=O)c3cccs3)ccc2O[C@H]1CN(C)S(=O)(=O)c1ccc(F)cc1, the relative growth is reported as inactive: 0.921. With Cc1ccc(S(=O)(=O)N(C)C[C@@H]2OCCCC[C@H](C)Oc3ccc(NS(=O)(=O)c4ccc(F)cc4)cc3C(=O)N([C@H](C)CO)C[C@H]2C)cc1 the relative growth was inactive: 1.01. For C[C@H]1CN([C@@H](C)CO)C(=O)Cc2cc(NC(=O)Nc3ccc(C(F)(F)F)cc3)ccc2O[C@@H]1CN(C)Cc1ccncc1, the relative growth was inactive: 1. For CC(C)Cn1cnc2c1c(=O)n(C)c(=O)n2C, the relative growth was inactive: 0.964. In the case of CC(C)CC#Cc1cnc2c(c1)C(=O)N([C@H](C)CO)C[C@H](C)[C@@H](CN(C)C(=O)c1ccc3c(c1)OCO3)O2, the relative growth is reported as inactive: 0.987. With COc1ccc2c3c(n(c2c1)C)[C@@H](CO)N(C[C@]13CCN(CC1)C(=O)Nc1cccc(c1)F)S(=O)(=O)C the relative growth was inactive: 0.991. C[C@@H]1CN([C@H](C)CO)C(=O)c2c(c3ccccc3n2C)-c2ccccc2CO[C@@H]1CN(C)Cc1ccccc1C(F)(F)F was tested, and the relative growth was inactive: 0.979. COc1ccc(S(=O)(=O)Nc2ccc3c(c2)C(=O)N([C@H](C)CO)C[C@@H](C)[C@H](CN(C)C(=O)Nc2cccc4ccccc24)OCCCC[C@@H](C)O3)cc1 was tested, and the relative growth was inactive: 0.993. In the case of COc1ccc(NC(=O)Nc2ccc3c(c2)C(=O)N([C@@H](C)CO)C[C@H](C)[C@H](CN(C)C(=O)Nc2ccc(C(F)(F)F)cc2)OCCCC[C@H](C)O3)cc1, the relative growth is reported as inactive: 0.973. In the case of C[C@@H]1CN([C@H](C)CO)C(=O)c2cc(NS(C)(=O)=O)ccc2O[C@@H](C)CCCCO[C@H]1CN(C)Cc1ccc(Cl)c(Cl)c1, the relative growth is reported as inactive: 0.987. For C[C@@H]1CN([C@@H](C)CO)C(=O)c2cc(NC(=O)Nc3cccc4ccccc34)ccc2O[C@@H]1CN(C)S(=O)(=O)c1ccc(F)cc1, the relative growth was inactive: 0.949. With CC(C)(O)c1ccccc1CC[C@@H](SCC1(CC(=O)O)CC1)c1cccc(/C=C/c2ccc3ccc(Cl)cc3n2)c1 the relative growth was inactive: 1.15. For O=C(C[C@@H]1C=C[C@H](NC(=O)c2cccc(F)c2)[C@@H](CO)O1)NCCN1CCCC1, the relative growth was inactive: 0.965. With C[C@@H]1CCCCO[C@@H](CN(C)C(=O)Nc2ccccc2)[C@@H](C)CN([C@@H](C)CO)C(=O)c2cc(NC(=O)Nc3ccc(F)cc3)ccc2O1 the relative growth was inactive: 1.01. For COc1ccccc1CNC(=O)C[C@@H]1C[C@@H]2c3cc(NS(=O)(=O)c4ccc(F)cc4)ccc3O[C@@H]2[C@H](CO)O1, the relative growth was inactive: 0.99. For C[C@H]1CN([C@@H](C)CO)C(=O)c2cc(C#CC3(O)CCCC3)cnc2O[C@H]1CN(C)C(=O)Cc1ccccc1, the relative growth was inactive: 0.985. For C[C@@H]1CN([C@@H](C)CO)C(=O)Cc2cc(NS(=O)(=O)c3cn(C)cn3)ccc2O[C@H]1CN(C)S(=O)(=O)c1ccccc1, the relative growth was inactive: 1.01. In the case of O=C(C[C@H]1CC[C@@H](NS(=O)(=O)c2ccccc2)[C@H](CO)O1)NCc1ccncn1, the relative growth is reported as inactive: 1.01. In the case of C[C@@H]1CCCCO[C@@H](CN(C)C(=O)NC2CCCCC2)[C@H](C)CN([C@H](C)CO)C(=O)c2cc(NC(=O)Nc3ccc4c(c3)OCO4)ccc2O1, the relative growth is reported as inactive: 1.02. COc1ccc(NC(=O)Nc2ccc3c(c2)C(=O)N([C@@H](C)CO)C[C@H](C)[C@H](CN(C)C(=O)Nc2ccc4c(c2)OCO4)OCCCC[C@@H](C)O3)cc1 was tested, and the relative growth was inactive: 1.04. With C[C@@H]1CCCCO[C@H](CN(C)Cc2ccncc2)[C@@H](C)CN([C@H](C)CO)C(=O)c2cc(NC(=O)Nc3ccc(F)cc3)ccc2O1 the relative growth was inactive: 0.994. C[C@H](CO)N1C[C@H](C)[C@@H](CN(C)C(=O)Nc2ccccc2)Oc2cc(C#CC3(O)CCCC3)ccc2S1(=O)=O was tested, and the relative growth was inactive: 1.02. In the case of CC(C)C[C@@H]1NC(=O)[C@H]2C[C@@H](C(=O)NCCCCCCNC(=O)CS)[C@@H](c3ccc(O)cc3)N2C1=O, the relative growth is reported as inactive: 1.01. For C[C@H]1CN([C@@H](C)CO)C(=O)c2cc(NC(=O)CCCN(C)C)ccc2O[C@H]1CN(C)C(=O)Nc1ccccc1, the relative growth was inactive: 0.992. With C[C@H](CO)N1C[C@H](C)[C@H](CN(C)Cc2ccc3c(c2)OCO3)Oc2ccc(NC(=O)c3ccncc3)cc2CC1=O the relative growth was inactive: 0.985. With COc1ccccc1S(=O)(=O)N[C@H]1C=C[C@@H](CC(=O)N2CCOCC2)O[C@H]1CO the relative growth was inactive: 0.989. In the case of CN1CCN(C(=O)[C@@H]2[C@@H](CO)[C@@H]3Cn4c(cccc4=O)[C@H]2N3S(=O)(=O)c2ccccc2F)CC1, the relative growth is reported as inactive: 1.01.
